The values below come from PubChem BioAssay AID1508623 (National Center for Advancing Translational Sciences (NCATS), 2021).

Structures are written as SMILES. The whole screen tested about 48,000 compounds, of which about 450 (0.94%) were called active. Roughly 19% stayed inconclusive and do not appear here. Calls come from the whole dose curve; as a rule, active = well fitted inhibition curve with a large enough effect; inconclusive = small, poorly fitted or top-dose-only effect; inactive = no such curve, though single readings can be large or run the other way. Some of the results follow.

The experiment in a line: Primary qHTS for Identification of Small Molecule Inhibitors of Huntingtin Promoter Activity. Note: nearly all actives have a fitted effect of over 50% in size. As to conditions: HEK293 HTT promoter firefly luciferase reporter (activity 0% = vehicle and -100% = no light), 24 h; series mostly up to 57.5 µM; activity change, negative = inhibition: at the top concentration. Summed up: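 HEK293 Fluc reporter, 2,500 cells/well, 24 h pre-culture; cpds up to 57.5 uM final, 24 h 37 degrees C; Dual-Glo, 10 min RT; normalized vehicle = 0%, zero RLU = -100%.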
For orientation: Quantitative high-throughput screening tests each substance at several concentrations.
As to `COc1ccc(Cn2nnc3c(=O)[nH]c(C4CCN(C(=O)c5ccc(C)cc5)CC4)nc32)cc1OC`, the “activity change, negative = inhibition” value was inactive: -5.35%.
On to `CCN(CC)CCCNC(=O)CN1N=C(c2ccccc2)CCC1=O`, for which the “activity change, negative = inhibition” value was inactive: -14.9%.
As for `Cc1nn(CC(=O)N2CCN(c3cccc(C(F)(F)F)c3)CC2)c(=O)c2cccn12`, the “activity change, negative = inhibition” value is inactive: 8.01%.
For the compound `Cc1nn(C)c2c1c(C(F)(F)F)cc(=O)n2C(C)C(=O)NCc1ccccc1Cl` (centres undefined), the “activity change, negative = inhibition” value is inactive: -12%.
In the case of `COC(=O)c1sccc1S(=O)(=O)N(CC(=O)NCc1ccc(F)cc1)c1ccc(Cl)cc1`, the “activity change, negative = inhibition” value is inactive: -4.11%.
Then `COc1ccc(CNC(=O)c2ccc(CNS(=O)(=O)c3ccc(F)cc3)cc2)cc1`, with inactive: -0.433%; and `Cc1ccc(NC(=O)Cn2nnc(C(=O)NCc3cccs3)c2N)cc1Cl`, with inactive: -1.64%; and `Cc1oc(-c2cccc(Cl)c2)nc1Cn1c(SCc2ccccc2F)nc2ccncc21`, with inactive: 9.22%.
Regarding `Cc1cc(C)cc(NC(=O)Cn2c(C(F)(F)F)nc3ccccc32)c1`, the “activity change, negative = inhibition” value was inactive: -19.8%.
For the compound `Cc1ccccc1NC(=O)CSc1nnc(-c2cccs2)o1`, the activity change, negative = inhibition was inactive: -17.9% [at 11.5 µM].
With `CCOC(=O)O[C@]1(C(=O)OCCl)CC[C@@H]2[C@H]3CCC4=CC(=O)C=C[C@]4(C)[C@@H]3[C@@H](O)C[C@@]21C`, the “activity change, negative = inhibition” value is inactive: 36.1%.
Then `COc1ccccc1NC(=O)CSC1=Nc2ccccc2C2=NC(CC(=O)NCc3cccs3)C(=O)N12` (centres undefined), with inactive: -25.6%.
Then `Nc1c(CC(=O)O)cccc1C(=O)c1ccc(Br)cc1`, with inactive: 16.8%.
With `COc1ccc(CNC(=O)c2cnc(N3CCOCC3)c3ccccc23)cc1`, the “activity change, negative = inhibition” value was inactive: -16.1%.
On to `N#Cc1ccccc1NC(=O)CSc1nnc(N)s1`, for which the “activity change, negative = inhibition” value was inactive: -12.8%.
Then `CCc1ccc2oc(-c3cc(NC(=O)c4cc([N+](=O)[O-])ccc4N4CCOCC4)ccc3Cl)nc2c1`, with inactive: 10.6%.
Turning to `Fc1ccc(-c2cn3cc(Cc4ccccc4)sc3n2)cc1`, the “activity change, negative = inhibition” value is inactive: -26.4%.
On to `CCCN(CCC)C(=O)Cn1c(=O)n(-c2ccc(Cl)cc2)c(=O)c2c3c(sc21)CCCC3`, for which the “activity change, negative = inhibition” value is inactive: -10.2%.
Then `COc1ccc(-n2ncc(C(=O)N3CCOCC3)c2C2CCN(C(=O)OC(C)(C)C)CC2)cc1`, with inactive: 11.5%.
`Cn1c(=O)c2sccc2n2c(CCCC(=O)NCc3ccccc3)nnc12`: the “activity change, negative = inhibition” value is inactive: -5.09%.
With `C[C@@H]1CC[C@@]2(OC1)O[C@H]1C[C@H]3[C@@H]4CC[C@H]5C[C@@H](O)CC[C@]5(C)[C@H]4CC(=O)[C@]3(C)[C@H]1[C@@H]2C`, the activity change, negative = inhibition is inactive: 1.48% [at 6.01 µM].
As to `O=C1COc2ccc(-c3cc(-c4ccccc4)c4c(n3)-c3cc(Cl)ccc3OC4)cc2N1`, the “activity change, negative = inhibition” value is inactive: -11.9%.
Then `CCN(C(=O)c1cn(CC)c(=O)c2cc(OC)c(OC)cc12)c1ccc(C)c(C)c1`, with inactive: -22.6%.
Under `Cc1ccc(N2CCN(S(=O)(=O)c3ccc4[nH]c5c(c4c3)CCCCC5)CC2)c(C)c1` stands inactive: -33.1%; under `CC1CCc2c(sc3nnn(CC(=O)Nc4ccc(Cl)cc4)c(=O)c23)C1` (centres undefined), inactive: -23%; under `O=C(Nc1cccc(F)c1F)C1CCN(c2ncccn2)CC1`, inactive: -3.37%.
Then `COc1cccc(-n2nnc(-c3nc(-c4ccccc4F)no3)c2C)c1`, with inactive: 66.9%.
As to `O=C(Nc1ccc(F)cc1)N1CCN(C(=O)c2nsc3ccccc23)CC1`, the “activity change, negative = inhibition” value is inactive: -6.62%.
As to `COC(=O)c1cc2occc2n1CC(=O)Nc1ccc(C(C)C)cc1`, the “activity change, negative = inhibition” value was inactive: -11.7%.
Under `COc1ccc(-c2nc3c(c(SCC(=O)N4CCCCC4)n2)Cc2c(CO)cnc(C)c2O3)cc1` stands inactive: -5.46%; under `CSc1cccc(NC(=O)Cn2ncn3c(cc4ccccc43)c2=O)c1`, inactive: -2.85%.
Under `Cc1cccc(N2CCN(C(c3ccccc3)c3nnc(-c4ccccc4Cl)o3)CC2)c1C` (centres undefined) stands inactive: -20.7%.
In the case of `CCOc1ccccc1NC(=O)C(c1ccccc1)N1Cc2ccccc2C1=O` (centres undefined), the “activity change, negative = inhibition” value was inactive: -3.37%.
For `COc1cccc(-c2nc(SCc3cc(=O)c4ccc(C)c(C)c4[nH]3)n[nH]2)c1`, the “activity change, negative = inhibition” value is inactive: -23.8%.
On to `CCOc1ccc(NC(=O)Cn2cc(C(=O)c3ccc(CC)cc3)c(=O)c3cc(C)ccc32)cc1`, for which the “activity change, negative = inhibition” value is inactive: -15.4%.
Under `COc1ccc(NC(=O)c2csc3c2CCCCC3)cc1` stands inactive: 19.9%.
As to `CCCN(C(=O)c1nn(-c2ccc(OC)cc2)c(=O)c2c1c1ccccc1n2C)c1ccc(CC)cc1`, the “activity change, negative = inhibition” value is inactive: -21.1%.
As for `O=C(CSc1nc2c([nH]c3ccccc32)c(=O)n1-c1ccc(F)cc1)NCc1ccccc1`, the “activity change, negative = inhibition” value was inactive: -24.4%.
For the compound `CCOCCCn1c(SCC(=O)Nc2ccc(C(C)C)cc2)nc2c(sc3ccccc32)c1=O`, the “activity change, negative = inhibition” value is inactive: -18.5%.
Then `C[C@]12C=CC(=O)C=C1CC[C@H]1[C@@H]3C[C@@H](O)[C@](O)(C(=O)CO)[C@@]3(C)C[C@H](O)[C@@]12F`, with inactive: 7.26%.
Then `Cn1c(=O)c2c(-c3ccccc3)n3c4ccccc4nc(-c4ccccc4)c3c2n(C)c1=O`, with inactive: -4.35%; and `COC(=O)c1cc2occc2n1Cc1nc(-c2ccccc2F)oc1C`, with inactive: 15.6%; and `COc1ccc(C(=O)NCC(c2cccnc2)N2CCc3ccccc3C2)cc1OC` (centres undefined), with inactive: -18.6%.
Take `CCn1c(=O)c2cc(C(=O)Nc3cc(F)ccc3F)sc2c2ccccc21`: the “activity change, negative = inhibition” value was inactive: 4.25%.
Take `O=C(Nc1cccc(-c2nc3cc(Cl)ccc3o2)c1)c1cc([N+](=O)[O-])ccc1N1CCOCC1`: the “activity change, negative = inhibition” value was inactive: -2.28%.
As for `COc1ccc(CN2C(=O)c3oc4ccccc4c(=O)c3C2c2ccc(O)cc2)cc1` (centres undefined), the “activity change, negative = inhibition” value is inactive: -4.34%.
Then `O=C(Cn1cnc2c(oc3ccccc32)c1=O)Nc1ccccc1C(F)(F)F`, with inactive: -7.6%; and `Cc1ccc(-c2nnc(Nc3cccc(Cl)c3)c3ccccc23)cc1S(=O)(=O)N1CCOCC1`, with inactive: 22.1%; and `COc1ccccc1NC(=O)Cn1c(=O)n(Cc2ccccc2)c(=O)c2sc3ccccc3c21`, with inactive: -9.69%.
On to `COc1ccc(C)cc1NC(=O)N(Cc1ccc(C)o1)C1CCN(C(C)=O)CC1`, for which the “activity change, negative = inhibition” value was inactive: -8.67%.
Then `CC(C(C)N1CC(=O)NC(=O)C1)N1CC(=O)NC(=O)C1` (centres undefined), with inactive: -16.5%.
Then `Cc1cc(C)c(NC(=O)CSc2nc3ccccc3nc2N2CCCCC2)c(C)c1`, with inactive: -11.5%; and `CCC(C(=O)Nc1cccc(Cl)c1C)n1nc(-c2ccc(C)cc2)ccc1=O` (centres undefined), with inactive: -29.6%; and `CC(C)COc1cccc(C(=O)Nc2ccc(-c3nc4ncccc4o3)cc2)c1`, with inactive: -13.3% [at 11.5 µM].
Under `CCCc1nc2sc3c(N4CCC(C)CC4)ncnc3c2c2c1CCCC2` stands inactive: -5.49%; under `O=C(NCc1cccc(Cl)c1)c1cc2ccc3cccnc3c2[nH]1`, inactive: 13.3%.
Turning to `CC(C)COc1ccc(C(=O)Nc2ccc(S(=O)(=O)Nc3ncccn3)cc2)cc1`, the “activity change, negative = inhibition” value was inactive: -9.44%.
Under `CCC(=O)Nc1cc(C)c(O)c(-c2nc3ncccc3o2)c1` stands inactive: -3.16%; under `CC1CCN(C(=O)Cn2cc(SCC(=O)NCc3ccccc3Cl)c3ccccc32)CC1`, inactive: -30.6%.
